Experimental data published in the supplement of paper PMC3724861.
Some of the results follow.

Each sequence was assayed on T1, Caupolican (Caup) homeodomain DNA-binding domain (assay: PBM E-score (8-mer, recovered from the published 9-mer minima) (E-score (dimensionless, -0.5 to 0.5)); Drosophila protein; higher = stronger relative binding preference, active = 0.31 or more).
T1 sequence: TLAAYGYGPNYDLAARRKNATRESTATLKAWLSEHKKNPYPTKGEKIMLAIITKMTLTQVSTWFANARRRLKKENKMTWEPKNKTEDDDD
Outline: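 An enrichment score, with higher meaning stronger, expresses relative binding preference for each short DNA word. The protein used was Caup's homeodomain DNA-binding domain (residues 214-303), produced by in vitro transcription and translation and tested at 100 nM on custom-designed protein binding microarrays. The 8-mer values were recovered from published 9-mer scores, each equal to the lower of its two constituent 8-mer scores.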

PBM E-score, ≥ 0.101:
ACCGATAA

PBM E-score, ≥ 0.114:
ACTGATCA

PBM E-score, ≥ 0.0733:
GGATTCCA

PBM E-score, ≥ -0.0491:
ACGCCGAT

PBM E-score, active:
TACATACA 0.415

PBM E-score, inactive:
CTAGTCCC -0.0687, AATGTACT 0.269, TGACGGCA -0.122, CAACAGAC 0.142, CACCGGTA 0.0264, TATTCGAA 0.0204, CAGCTGTA 0.0564, AGCGAAGG -0.14, CCGTTATC -0.0408, CTCCCTAA -0.079, AATGCTCA 0.0749, AGATTATC 0.0145, AGTCCACG -0.102, ATTACCGA 0.0892, CACATTCG 0.0989, ATCGGTGA 0.0977, AACGACAA 0.241, AAATGATG 0.18, CCCTAGCG -0.171, ACAATCAA 0.184, GACGGAGC -0.239, GGGTGTTA 0.19, AGACGCTG -0.0979, GCCGTCCA -0.108, CATCGCAG 0.0051, ATAGATTA 0.217, GCCCGAAA -0.09, CCGCTTTA -0.0283, AATTGCTC 0.011, CGCGAACA 0.0855, CTTTCCGA -0.0959, ATGACCGC -0.0843, ACAACGTC 0.157, AGGTATGA 0.0886, ATGCAACG 0.087, ATGATAAC 0.23, GGCTTCCA -0.242, GATGAGCC -0.11, GACGGTAC 0.0109, CAGATCTA 0.0757, CACCATGA -0.0553, ATCACATA 0.239, CGCCCCTC -0.284, CACGGGTC -0.0566, CGCTAAGA -0.0807, ATGCATAG 0.0469, CAGCTATA 0.0751, CCGTGTAG 0.286, GCGTAAGC -0.197, CGCGTGCA -0.00474, CGAATCAA 0.0839, CAACCATA 0.0225, CTCAGTCC -0.0716, ATGCTGCC -0.0457, CCGAGAAA -0.0532, GAATTCCC -0.0135, ATACTAAG 0.0892, CCTTGCCA -0.0896, AGCTCTAC -0.0321, CTGTAGTC 0.0608, ACTAGCAG 0.0766, AGCCCTTA -0.144, GTCGTAAC 0.162, ATAAGTTA 0.188, GGTAATAC 0.0655, CCAGCAGC -0.177, AGGGTCAA -0.0498, GCCTCTAC -0.135, GAAGCGCA -0.229, GATGAGGC -0.115, AGTGGTTC 0.0644, TTACCAAA 0.0526, ATAAAAGC -0.0425, CACGCCAA -0.0807, GACGTATA 0.0997, ACGTCAGT -0.0491, CAATCGGA 0.0187, CACGTCGG -0.0125, AGTGTCGG 0.0481, CCTGTACG 0.0896, AATCGTGA 0.102, CCTATCCG -0.134, CGCGTTAA -0.0956, CGGCGACG -0.177, CACCCCTG -0.045, ACCGTAGG -0.128, AATCGTCA 0.0937, GCCCGCGC -0.231, CAGGCAGG -0.0476, GCTAATAA 0.133, GATGATAC 0.0554, ATAAACGG 0.0368, AGAAAAGG 0.00439, AAAGGTGA -0.0106, GGATTGCA -0.0443, GGCGAGCA -0.131, CCGGTGAG -0.188, GTCTAAAA -0.0624, CGCGGTTA -0.0649, ACGTTTTG 0.0428, AGTATGAT 0.17, TCATCGAA -0.0374, CCGATCGC -0.0771, CGAACACA 0.167, AGAGAATC -0.0669, GGGAGATA -0.114, CTAAGTAA 0.0102, ACGTAACG 0.0522, CCTGGCCC -0.251, CTCAATCA 0.0591, AGGTTGCC -0.0843, AATCTGCT 0.0174, AGGCACCT -0.165, CTCCGTCA -0.114, AGTGGGTC -0.178, AGCGCAAG -0.181, CGCTGCGA -0.0621, CTTTCCCA -0.162, ACGCTCTA -0.0243, AAAATGAT 0.177, TAATGATA 0.091, GGTGCCAC -0.202, AAAGTTGG 0.0235, CCGTTACG -0.0459, GACGAGTC -0.057, AGCGTAAC 0.134, GGAAGACC -0.172, AACTGATT 0.159, AGCCAACT -0.103, GAGCGTAA -0.0201, ATTAGAAA 0.043, CACCGGGA -0.192, AGTATACT 0.163, CACATAAG 0.0233, GCAAAGGC -0.087, CACAACCC -0.021, GAAGAGAC -0.0126
